In all, about 260,000 compounds went through this assay and about 150 (0.058%) were called active. Inconclusive means that the source gave no clear call. Such entries were picked first, then a sample of the others. Calls follow the shape of the dose curve; as a rule, active = well fitted inhibition curve with a large enough effect; inconclusive = small, poorly fitted or top-dose-only effect; inactive = no such curve, though single readings can be large or run the other way. Potencies of inconclusive entries are left out as doubtful fits.
target: Pyruvate kinase PKM (Homo sapiens) (UniProt P14618); experiment: qHTS Assay for Inhibitors of Human Muscle isoform 2 Pyruvate Kinase; conditions: purified PKM2, ATP generation, Kinase-Glo luminescence; series mostly up to 57.5 µM; activity change, negative = inhibition: at the top concentration; also: nearly all actives have a fitted effect of over 60% in size;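 as to activity change, negative = inhibition: plate controls were uninhibited enzyme wells for no effect and no-enzyme wells for full effect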
In short: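 Enzyme run at intermediate activity with final 0.1 mM ADP, 0.5 mM PEP (50 mM imidazole pH7.2, 50 mM KCl, 7 mM MgCl2), incubated 1 h at r.t. ATP formed read by Kinase-Glo luminescence, normalized to no-enzyme (full inhibition) and uninhibited wells.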
Potency is read from the fitted curve at half-maximal effect; tags tell the direction and shape of the fitted curve.

UniProt P14618, sequence (P14618 whole entry, looked up, canonical isoform): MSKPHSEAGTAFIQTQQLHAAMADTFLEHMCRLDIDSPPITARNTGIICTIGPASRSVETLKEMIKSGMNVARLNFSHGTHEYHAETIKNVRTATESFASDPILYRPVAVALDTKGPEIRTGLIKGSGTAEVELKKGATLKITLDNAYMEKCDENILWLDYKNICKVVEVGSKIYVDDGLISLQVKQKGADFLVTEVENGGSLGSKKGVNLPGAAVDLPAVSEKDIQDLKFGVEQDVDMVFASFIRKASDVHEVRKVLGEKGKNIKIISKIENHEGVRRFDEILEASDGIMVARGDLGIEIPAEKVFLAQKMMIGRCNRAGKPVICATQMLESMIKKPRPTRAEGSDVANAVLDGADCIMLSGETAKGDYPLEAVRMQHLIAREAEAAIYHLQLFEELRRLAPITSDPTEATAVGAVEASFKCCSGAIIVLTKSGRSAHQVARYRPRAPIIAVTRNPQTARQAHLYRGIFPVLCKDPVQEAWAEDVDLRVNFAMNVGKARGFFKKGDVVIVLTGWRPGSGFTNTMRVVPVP

`COc1cc2c(cc1NC(=O)COC(=O)CNC(=O)c1ccccc1)oc1ccccc12` was tested. Which Potency did it give?
The Potency was inconclusive [falling, full curve, poor fit].

How did the “activity change, negative = inhibition” value turn out when `O=C(NCCOc1ccccc1)C1CCCCC1` was run?
The value was inactive: 35.1%.

With `CCC(=O)NC1=C(Cl)C(=O)C(NC(=O)CC)=C(Cl)C1=O` as the compound, how does the Potency read?
Its Potency is inconclusive [falling, single point].

`COc1ccc(-c2[nH]ncc2C2N=C(N)Nc3nc4ccccc4n32)cc1` (stereo not given) was tested. Which Potency did it give?
The Potency was inconclusive [falling, single point].

How did the Potency turn out when `COc1cc(C(=O)Nc2ccc(C)cn2)c([N+](=O)[O-])cc1OC` was run?
Its Potency is inconclusive [falling, single point].

With `CCOc1ccc(C(=O)Nc2cc(C)ccn2)cc1` as the compound, how does the Potency read?
The Potency was active: 14.1 µM.

Which “activity change, negative = inhibition” value does the source give for `O=C(NCc1ccco1)c1cccn2c(=O)c3c4c(sc3nc12)CCCC4` here?
Its value is inactive: 112%.

`O=c1ccc2cc(S(=O)(=O)NCc3ccccc3)ccc2[nH]1` was tested. Which “activity change, negative = inhibition” value did it give?
Its value is inactive: 51.7%.

With `Cc1ccc(CN(C)C(=O)c2ccc3c(c2)NC(=O)CS3)o1` as the compound, how does the “activity change, negative = inhibition” value read?
Its value is inactive: 58.1%.

Which Potency does the source give for `CCOC(=O)c1cnc2c(c(C)nn2C)c1Oc1ccccc1F` here?
Its Potency is inconclusive [falling, single point].

Which Potency does the source give for `COc1ccc(NC(=O)c2cc(Br)ccc2Cl)c([N+](=O)[O-])c1` here?
Its Potency is inconclusive [falling, full curve].

For `CCOC(=O)C1=C(CN2CCSCC2)NC(=O)NC1c1ccc2c(c1)OCO2` (stereo not given), which Potency is on record?
The Potency was inconclusive [falling, single point].

With `CCOc1ccc(/C=C/C(=O)c2c(O)cc(C)oc2=O)cc1` as the compound, how does the Potency read?
Its Potency is inconclusive [falling, single point].

`O=C(Nc1nsc(-c2ccccc2)n1)c1cccs1` was tested. Which Potency did it give?
Its Potency is inconclusive [falling, single point].

For `NC(=O)C1CCN(C(=O)c2ccco2)CC1`, which “activity change, negative = inhibition” value is on record?
Its value is inactive: -10.3%.

For `COC(=O)c1cc(C)nc(Sc2ccccc2N)n1`, which “activity change, negative = inhibition” value is on record?
The value was inactive: 37.7%.

Which Potency does the source give for `O=C(O)c1ccc(N/N=C/c2ccc(C(F)(F)F)cc2)cc1` here?
Its Potency is inconclusive [falling, single point].

For `O=C(Nc1ccc(NC(=O)c2cccs2)cn1)c1ccco1`, which Potency is on record?
Its Potency is inconclusive [falling, single point].

Which Potency does the source give for `COc1ccc(NC(=O)CC2C(=O)N(Cc3cccs3)C(=S)N2C(C)C)cc1` (stereo not given) here?
The Potency was inconclusive [falling, single point].

How did the “activity change, negative = inhibition” value turn out when `CC1(C)CC(=O)c2c(oc3ccc(NS(=O)(=O)c4cccc5cccnc45)cc23)C1` was run?
The value was inactive: 31.6%.

Which Potency does the source give for `CN1C(=O)S/C(=C/c2cccn2-c2cccc(C(=O)O)c2)C1=O` here?
The Potency was inconclusive [falling, single point].

How did the Potency turn out when `Fc1ccc(/C=N/Nc2nccnc2Cl)cc1` was run?
The Potency was inconclusive [falling, single point].

`Cc1ccc2nsnc2c1S(=O)(=O)N1CCN(Cc2ccc3c(c2)OCO3)CC1` was tested. Which “activity change, negative = inhibition” value did it give?
The value was inactive: 46.2%.

With `COc1ccccc1Oc1ccc(N/C=C/C(=O)c2ccc(C)o2)cc1` as the compound, how does the “activity change, negative = inhibition” value read?
Its value is inactive: 49.2%.

How did the Potency turn out when `CCN(CC)S(=O)(=O)c1ccc(OC)c(NC(=O)c2cccc(C)c2[N+](=O)[O-])c1` was run?
The Potency was inconclusive [falling, single point].

How did the “activity change, negative = inhibition” value turn out when `COc1ccc(C(=O)Oc2c(CN3CCOCC3)cc(Cl)c3cccnc23)cc1` was run?
Its value is inactive: -6.37%.

For `CC(=O)N1N=C(c2ccncc2)CC1c1ccccc1O` (stereo not given), which “activity change, negative = inhibition” value is on record?
Its value is inactive: 126%.

How did the Potency turn out when `O=C(O)c1ccc(COc2ccccc2/C=C2\NC(=O)N(Cc3ccccc3)C2=O)cc1` was run?
The Potency was inconclusive [falling, single point].

How did the Potency turn out when `O=C(/C=C/c1ccncc1)c1cc(Cl)ccc1O` was run?
Its Potency is inconclusive [falling, single point].

`CCOC(=O)N1CCN(C(=S)NC(=O)c2nn(C)cc2Br)CC1` was tested. Which Potency did it give?
Its Potency is inconclusive [falling, single point].

For `O=C(c1cccs1)N1CCCN(c2ncnc3scc(-c4ccccc4)c23)CC1`, which Potency is on record?
Its Potency is inconclusive [falling, single point].

Which “activity change, negative = inhibition” value does the source give for `COc1ccc(CCN2CC(C(=O)NCc3ccco3)CC2=O)cc1OC` (stereo not given) here?
The value was inactive: 36.9%.

For `O=C(Nc1nc2ccccc2[nH]1)c1ccccc1`, which Potency is on record?
The Potency was inconclusive [falling, partial curve].

For `c1ccc(-c2noc(-c3ccc4c(c3)OCO4)n2)nc1`, which Potency is on record?
The Potency was active: 8.91 µM.

For `COc1cc(OC)c(C(=O)OCC(=O)NCCc2ccccc2)cc1OC`, which Potency is on record?
The Potency was inconclusive [falling, single point].

How did the “activity change, negative = inhibition” value turn out when `O=C(CSc1ccc(-c2ccco2)nn1)c1ccccc1` was run?
Its value is inactive: 34.7%.

For `Cc1cc(C)nc(SCc2ccc(C(=O)N/N=C/c3ccc(C(=O)O)cc3)cc2)n1`, which Potency is on record?
The Potency was inconclusive [falling, single point].

With `CCOc1cc(/C=C(\CC(=O)O)c2nc3ccccc3s2)ccc1OC` as the compound, how does the Potency read?
Its Potency is inconclusive [falling, single point].

With `O=C(Nc1ccc(OC(=O)c2ccco2)cc1)c1ccco1` as the compound, how does the Potency read?
The Potency was inconclusive [falling, partial curve].

Which “activity change, negative = inhibition” value does the source give for `Cn1c(=O)c2c(nc(SCCNS(=O)(=O)c3ccccc3)n2C)n(C)c1=O` here?
Its value is inactive: 55.3%.

Which Potency does the source give for `CCN1/C(=C/C(C)=C/c2sc3ccccc3[n+]2CC)Sc2ccccc21` here?
Its Potency is inconclusive [falling, partial curve].

With `CN(C)/C=N/c1nc(-c2ccc3c(c2)OCO3)cs1` as the compound, how does the Potency read?
The Potency was inconclusive [falling, single point].

With `c1ccc(Nc2nc3ccccc3o2)cc1` as the compound, how does the Potency read?
The Potency was inconclusive [falling, single point].

How did the Potency turn out when `O=C1CC(=O)N(CCc2ccc(F)cc2)C(=O)N1` was run?
Its Potency is inconclusive [falling, single point].

`Cc1[nH][nH]c(=O)c1C(c1ccc(-c2ccc(C(=O)O)cc2)o1)c1c(C)[nH][nH]c1=O` was tested. Which Potency did it give?
Its Potency is inconclusive [falling, single point].

`O=C(O)C1Nc2c(O)cc(Cl)c([N+](=O)[O-])c2C2C=CCC12` (stereo not given) was tested. Which “activity change, negative = inhibition” value did it give?
The value was inactive: 21.8%.

With `CCC1(C)Cc2c(sc3nc(SCC(=O)O)[nH]c(=O)c23)CO1` (stereo not given) as the compound, how does the Potency read?
The Potency was inconclusive [falling, single point].

Which Potency does the source give for `O=C1/C(=C\c2cccnc2)CCc2ccccc21` here?
Its Potency is inconclusive [falling, single point].

For `CCOc1cccc2sc(NN)nc12`, which Potency is on record?
The Potency was inconclusive [falling, single point].

`O=C(Nc1ccc(C(=O)O)c(O)c1)c1ccccc1` was tested. Which Potency did it give?
The Potency was inconclusive [falling, single point].

How did the Potency turn out when `Cc1csc(NC(=O)c2cn3ccccc3n2)n1` was run?
The Potency was inconclusive [falling, partial curve].

How did the “activity change, negative = inhibition” value turn out when `Cc1cccc(NS(=O)(=O)c2cc3c(cc2C)NC(=O)CO3)c1` was run?
Its value is inactive: 89.4%.

Which “activity change, negative = inhibition” value does the source give for `Nc1ncnc(SCc2c(F)cccc2Cl)n1` here?
The value was inactive: 43.2%.

With `COc1ccc(C(=O)O/N=C(\N)c2ccccn2)c(OC)c1` as the compound, how does the Potency read?
The Potency was inconclusive [falling, partial curve].

With `Cc1ccc(-c2nnc(SCC(=O)N/N=C/c3ccccc3C(=O)O)n2-c2ccc(Cl)cc2)cc1` as the compound, how does the “activity change, negative = inhibition” value read?
Its value is inactive: 88%.

For `COC(=O)NCN1C(=O)C2C3C=CC(C3)C2C1=O` (stereo not given), which Potency is on record?
Its Potency is inconclusive [falling, single point].

`O=C(CSc1ccc(-c2cccnc2)nn1)Nc1ccc(F)c(F)c1` was tested. Which “activity change, negative = inhibition” value did it give?
The value was inactive: 35.8%.

Which “activity change, negative = inhibition” value does the source give for `CN(C1CCCCC1)S(=O)(=O)c1ccc(-c2ccccn2)s1` here?
The value was inactive: 47.7%.

For `CC(=O)Nc1cccc(NC(=S)Nc2ccc(F)cc2F)c1`, which Potency is on record?
Its Potency is inconclusive [falling, single point].

How did the Potency turn out when `Cc1ccc2sc(NNC(=O)c3cc(=O)c4ccccc4o3)nc2c1C` was run?
Its Potency is inconclusive [falling, single point].

`CN(c1ccc(F)cc1)S(=O)(=O)c1ccc(Cl)c(C(=O)OCC(=O)NCc2ccco2)c1` was tested. Which “activity change, negative = inhibition” value did it give?
The value was inactive: 42.4%.

`COc1ccc(N2CCN(C(=O)CCN3C(=O)c4ccccc4S3(=O)=O)CC2)cc1` was tested. Which Potency did it give?
The Potency was inconclusive [falling, single point].

With `Cn1c(CNC(=O)c2ccccc2F)nnc1SCC(=O)NCc1ccccc1` as the compound, how does the “activity change, negative = inhibition” value read?
The value was inactive: 49.2%.

`CCN(CC)S(=O)(=O)c1cccc(-c2nnc(SCC(=O)N3CCC(C(=O)O)CC3)n2N)c1` was tested. Which Potency did it give?
The Potency was inconclusive [falling, single point].

Which Potency does the source give for `NNc1nc2c(F)cc(F)cc2s1` here?
The Potency was inconclusive [falling, single point].

For `Cc1cc2nc(-c3cccnc3SCC(=O)NCc3ccco3)[nH]c2cc1C`, which Potency is on record?
The Potency was inconclusive [falling, partial curve].

With `Cc1nnc(SCCn2c(N3CC(C)CC(C)C3)nc3c2c(=O)n(C)c(=O)n3C)s1` (stereo not given) as the compound, how does the Potency read?
Its Potency is inconclusive [falling, full curve, poor fit].

`CNC(=S)N/N=C/c1ccc(-c2cccc(C(=O)O)c2)o1` was tested. Which Potency did it give?
The Potency was inconclusive [falling, single point].

Which “activity change, negative = inhibition” value does the source give for `O=C(Nc1nc2c(F)cc(F)cc2s1)C1CC(=O)N(Cc2ccco2)C1` (stereo not given) here?
Its value is inactive: 34.9%.

Which Potency does the source give for `CC(=O)N1CCN(C2=Nc3cccc4cccc2c34)CC1` here?
Its Potency is inconclusive [falling, single point].

Which Potency does the source give for `COc1cc(C(=O)OCC(=O)c2cc(C)n(C)c2C)cc(OC)c1OC` here?
The Potency was inconclusive [falling, partial curve].

`O=C(Nc1nc2ccccc2s1)c1cnccn1` was tested. Which Potency did it give?
The Potency was inconclusive [falling, partial curve].

For `CSC1=NCCCN1C(=O)c1c(-c2ccccc2Cl)noc1C`, which Potency is on record?
The Potency was inconclusive [falling, single point].

`COc1cc(C(=O)NCC(=O)OCc2cc(=O)oc3c(C)c(C)ccc23)cc(OC)c1OC` was tested. Which “activity change, negative = inhibition” value did it give?
The value was inactive: 57.4%.

For `Nc1ccc(NC(=O)c2ccc(C(=O)Nc3ccc(N)cc3)cc2)cc1`, which Potency is on record?
The Potency was inconclusive [falling, single point].

— PubChem BioAssay AID1634 (National Center for Advancing Translational Sciences (NCATS), 2009)
